Test results as given in PubChem BioAssay AID485294 (National Center for Advancing Translational Sciences (NCATS), 2010).
Out of some 370,000 compounds screened, about 150 (0.041%) were called active. Inconclusive means that the source gave no clear call. Such entries were picked first, then a sample of the others. The call rests on the fitted dose curve; in most records, active means well fitted inhibition curve with a large enough effect; inconclusive means small, poorly fitted or top-dose-only effect; inactive means flat fitted curve, though single readings scatter. No potency is given beside an inconclusive call; the fits are too rough.

Each compound was assayed against Beta-lactamase (Escherichia coli (strain K12)) (UniProt P00811) (assay: qHTS Inhibitors of AmpC Beta-Lactamase (assay with detergent)). Conditions: AmpC hydrolysis of nitrocefin, absorbance 480 nm, 0.01% Triton; series mostly up to 114 µM.
UniProt P00811, sequence (P00811 whole entry, looked up): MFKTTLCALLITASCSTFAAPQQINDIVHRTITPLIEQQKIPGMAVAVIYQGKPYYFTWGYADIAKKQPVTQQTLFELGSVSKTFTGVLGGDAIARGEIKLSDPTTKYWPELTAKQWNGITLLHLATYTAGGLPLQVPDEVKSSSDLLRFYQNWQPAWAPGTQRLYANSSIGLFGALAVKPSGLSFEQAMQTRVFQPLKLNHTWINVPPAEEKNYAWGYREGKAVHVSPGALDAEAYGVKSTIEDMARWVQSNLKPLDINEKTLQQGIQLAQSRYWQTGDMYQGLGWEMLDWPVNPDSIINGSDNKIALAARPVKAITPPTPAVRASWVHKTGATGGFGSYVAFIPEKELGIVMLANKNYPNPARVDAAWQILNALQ
Outline: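 20 mM phosphate pH 7.0 + 0.01% (detergent screen) or 0.0001% Triton X-100; 5.3 nM AmpC reagent; cpd preinc 15 min RT; nitrocefin (800 uM stock) to start; A480 q20 s × 4 min; Activity was normalised to no-enzyme and no-compound control wells.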
Further: nearly all actives have a fitted effect of over 25% in size.
Potency means the concentration at half of the fitted maximal effect; tags describe the fitted curve by direction and shape.

Compound	Potency
Cc1ccc(C)c(S(=O)(=O)NNC(=O)c2sc(NS(=O)(=O)c3ccccc3)nc2C)c1	inconclusive [inhibitor, full curve, poor fit]
CCOC(=O)c1ccccc1NC(=O)CC1Nc2ccccc2NC1=O (stereo not drawn)	inconclusive [inhibitor, partial curve, poor fit]
O=C(OC(C(=O)NCc1ccc2c(c1)OCO2)c1ccccc1F)c1ccco1 (stereo not drawn)	inconclusive [inhibitor, full curve, poor fit]
CCCn1c(SCC(=O)c2cc(OC)ccc2OC)nc2c1c(=O)n(C)c(=O)n2C	inconclusive [inhibitor, full curve, poor fit]
CCCCNC(=O)CSc1nc2n[nH]c(C)c2c(=N)n1-c1cccc(Cl)c1C	inconclusive [inhibitor, partial curve, poor fit]
COc1ccccc1N1CCN(C(=O)/C=C/c2cccs2)CC1	inactive
CCCN(CCC)c1nc(N)c(C#N)c(CC#N)c1C#N	inactive
O=C(Nc1ccccc1)c1ccc(C(=O)Nc2ccccc2)nc1	inactive
Cc1sc2ncn(CC(=O)Nc3ccc(C(C)C)cc3)c(=O)c2c1S(=O)(=O)N1CCN(c2ncccn2)CC1	inactive
O=C1CCCN1CCCNc1ccc2nnc(CCC(=O)N3CCN(c4ccc(F)cc4)CC3)n2n1	inactive
CC(CCc1ccco1)NC(=O)Cn1nc(Cc2ccncc2)c2ccccc2c1=O (stereo not drawn)	inconclusive [inhibitor, partial curve, poor fit]
COc1cccc(-c2nc(C(=O)NCC3CCCO3)cc3c2[nH]c2ccccc23)c1 (stereo not drawn)	inconclusive [inhibitor, single point]
Cc1nc(C)n(C(C)CNC(=O)c2ccccc2)n1 (stereo not drawn)	inconclusive [inhibitor, full curve, poor fit]
COC(=O)c1cc(-c2ccc3c(c2)OCO3)nc2ccccc12	inconclusive [inhibitor, full curve]
COc1ccc(NC(=S)/N=C(\N)Nc2nc(C)c3ccc(C)cc3n2)cc1	inactive
O=C(/C=C/c1cccnc1)/C=C/c1cccnc1	inactive
COc1cccc(CNC(=O)Cn2nc(C)c([N+](=O)[O-])c2C)c1	inconclusive [inhibitor, full curve]
COc1ccc(/C=C2\SC(N3CCc4ccccc4C3)=NC2=O)cc1	inconclusive [inhibitor, full curve, poor fit]
COC(=O)C1CC(=O)N(c2ccc(C)cc2)C1 (stereo not drawn)	inconclusive [inhibitor, single point]
CCOC(=O)c1ccc(NC(=O)N2CCc3ccccc3C2)cc1	inactive
O=C(C1=C[C@H](c2ccc(C(F)(F)F)cc2)C[C@H](OCc2ccc(CO)cc2)O1)N1CCOCC1	inactive
Cc1c(C)n(CCc2c[nH]c3ccccc23)ccc1=O	inconclusive [inhibitor, partial curve]
COCCn1c(SCC(=O)NC2CC2)nnc1-c1ccco1	inactive

Compound	Potency
COc1ccc(S(=O)(=O)N(C)CC(=O)N2CCN(Cc3ccccc3)CC2)cc1C	inactive
COc1ccc(S(=O)(=O)N2CCCC(C(=O)N3CCN(C)CC3)C2)cc1C (stereo not drawn)	inconclusive [inhibitor, full curve]
COc1ccc(C(=O)/C=C/c2ccc(OC)cc2OC)c(O)c1	inactive
CC(=O)Oc1ccc(N(c2ccccc2)S(=O)(=O)c2ccc(C)cc2)cc1	inconclusive [inhibitor, full curve, poor fit]
CCN(CC)S(=O)(=O)c1ccc(NC(=O)c2c(-c3ccccc3)noc2C)cc1	inconclusive [inhibitor, partial curve]
O=C(c1ccc([N+](=O)[O-])cc1)N1CCc2ccccc2C1	inconclusive [inhibitor, partial curve]
C[C@@H](O)C1NC(=O)[C@H](CCCCN)NC(=O)c2cc([N+](=O)[O-])cc(I)c2OCC[C@@H](C(N)=O)NC1=O (stereo partly drawn)	inconclusive [inhibitor, full curve, poor fit]
CC(=O)c1cc2c(cc1NC(=O)Cc1ccsc1)OCO2	inactive
COc1ccccc1OCc1nc(C#N)c(NCCCn2ccnc2)o1	inactive
C/C(=N\n1c(C)nc2ccccc2c1=O)c1ccc(C)o1	inactive
COc1cccc(NC(=O)/C(C#N)=C/c2c(C)n(Cc3ccc(Cl)cc3)c3ccccc23)c1	inactive
CN(C)c1cccc(C(=O)NNC(=S)NC2CCCC2)c1	inactive
Cc1cn(S(=O)(=O)c2cc(Br)ccc2Br)cn1	inconclusive [inhibitor, partial curve]
CN(C)S(=O)(=O)c1cccc(NC(=S)N/N=C/C(c2ccccc2)c2ccccc2)c1	inconclusive [inhibitor, full curve, poor fit]
CC(C)CCNC(=O)COc1ccc(N(C)S(=O)(=O)c2ccc(F)cc2)cc1	inconclusive [inhibitor, full curve, poor fit]
CC(C)c1nc(-c2ccccc2)c(-c2ccccc2)[nH]1	inconclusive [inhibitor, full curve, poor fit]
COc1ccc(CCn2c3c(c(=O)[nH]c2=O)C(NC(=O)c2ccc(C(C)(C)C)cc2)(C(F)(F)F)C(=O)N3)cc1OC (stereo not drawn)	inactive
CCOC(=O)NC1(C(F)(F)F)C(=O)N(Cc2ccccn2)C2=C1C(=O)CC(C)(C)C2 (stereo not drawn)	inconclusive [inhibitor, full curve]
COc1ccc(NC(=O)CNC(c2ccccc2)c2ccccc2)cc1	inconclusive [inhibitor, full curve, poor fit]
CCOC(=O)c1sc2nc(CC(=O)OC)nc(NCCN3CCOCC3)c2c1C	inconclusive [inhibitor, full curve, poor fit]
Cc1cccc(C(=O)N[C@H](C(=O)NCCc2ccc(Cl)cc2)C(C)C)c1	inconclusive [inhibitor, full curve, poor fit]
O=C(O)CCCNC(=O)Nc1ccccc1	inconclusive [inhibitor, full curve, poor fit]
COc1ccc(C(CNC(=O)c2cccc(S(=O)(=O)Nc3ccccc3OC)c2)N2CCOCC2)cc1 (stereo not drawn)	inconclusive [inhibitor, partial curve]

Compound	Potency
Cc1nnc(NC(=O)CSc2nnc(-c3ccc(S(=O)(=O)N4CCCC4)cc3)n2C)s1	inconclusive [inhibitor, full curve, poor fit]
COCCCN(C(=O)CCOc1ccc(C)cc1)c1c(N)n(Cc2ccccc2)c(=O)[nH]c1=O	inconclusive [inhibitor, full curve, poor fit]
C=CCN1C(=O)CN=C1Nc1ccccc1	inconclusive [inhibitor, full curve, poor fit]
CCCCOC(=O)CSC(=S)N(C)Cc1cccs1	inconclusive [inhibitor, single point]
CCOc1cc(C2C3=C(CCCC3=O)NC3=C2C(=O)CCC3)cc(Cl)c1O	inactive
Cn1cc(C(=O)NCc2ccccc2)c2ccccc21	inconclusive [inhibitor, partial curve]
CN1CCN(S(=O)(=O)c2ccc3ccccc3c2)CC1	inactive
CCCN1CCC(N2CCN(c3ccccc3OC)CC2)CC1	inconclusive [inhibitor, full curve]
CCOC(=O)c1c(N2C(=O)C3C4C=CC(O4)C3C2=O)sc2c1CCCC2 (stereo not drawn)	inactive
O=C(Nc1ccon1)c1cccc(C(F)(F)F)c1	inconclusive [inhibitor, full curve, poor fit]
Cc1nnc(NC(=O)CSCc2cc(=O)c3ccccc3[nH]2)s1	inconclusive [inhibitor, full curve, poor fit]
Cc1ccc(NC(=O)c2ccccn2)cc1S(=O)(=O)N1CCOCC1	inconclusive [inhibitor, full curve, poor fit]
CCOc1ccc(NC(=O)Cn2c(=O)n(CC(=O)NCc3ccccc3Cl)c(=O)c3sccc32)cc1	inactive
O=C1CCC(C(=O)N2CCOCC2)CN1Cc1cccc(C(F)(F)F)c1 (stereo not drawn)	inconclusive [inhibitor, full curve, poor fit]
CCOC(=O)C1=C(C)NC(=O)NC1c1ccsc1 (stereo not drawn)	inconclusive [inhibitor, full curve, poor fit]
CCCCCn1c(=O)[nH]c2cc(C(=O)N3CCN(c4cccc(C(F)(F)F)c4)CC3)ccc2c1=O	inactive
Oc1ccc2ccccc2c1Br	inconclusive [inhibitor, full curve, poor fit]
CN(C)c1ccc(CNC(=O)CN2CCSc3ccc(S(=O)(=O)N(C)C)cc32)cc1	inactive
CC(C)C(c1nnnn1Cc1ccc2c(c1)OCO2)N1CCN(c2ccccc2)CC1 (stereo not drawn)	inconclusive [inhibitor, partial curve, poor fit]
O=C(COC(=O)c1cc(S(=O)(=O)N2CCCCC2)ccc1N1CCOCC1)c1ccc(F)cc1	inconclusive [inhibitor, full curve, poor fit]
Cc1cc(C)nc(NC(=NCCc2c[nH]c3ccccc23)NC(=O)Nc2ccc(Cl)cc2)n1	inconclusive [inhibitor, full curve, poor fit]
O=[N+]([O-])c1ccc(N2CCN(Cc3ccc([N+](=O)[O-])o3)CC2)cc1	inconclusive [inhibitor, single point]
